Experimental data as given in PMC12350791.

Target: T1, Translin-associated protein X (UniProt Q99598)
T1 sequence: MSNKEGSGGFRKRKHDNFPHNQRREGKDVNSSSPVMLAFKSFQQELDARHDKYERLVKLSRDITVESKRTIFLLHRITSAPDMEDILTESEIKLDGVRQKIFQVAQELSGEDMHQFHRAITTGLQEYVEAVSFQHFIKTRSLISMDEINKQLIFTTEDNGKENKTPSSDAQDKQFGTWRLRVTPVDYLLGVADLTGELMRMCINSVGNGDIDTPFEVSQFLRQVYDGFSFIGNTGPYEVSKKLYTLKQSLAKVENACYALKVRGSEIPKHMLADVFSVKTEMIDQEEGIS
Assay: cross-linking mass spectrometry

Translin
listed as a hit: yes
